# Reference: PubChem BioAssay (Tox21)
# Values joined by “and” are separate entries in the source; they are usually repeats but may differ in a detail not shown here. Equal values may be shown once. Inconclusive results, whose numbers are uncertain, are shown with a selection of clear calls. For some of these results: Where the call is inconclusive, the potency comes from a doubtful curve fit. Active and inactive are the calls of the source. Unless noted, the call rests on the fitted dose curve; in most records, active means well fitted curve in the direction sought with a large enough effect in the repeat runs; inconclusive means weak or mixed curves; inactive means no such curve, though single readings can be large; an effect the other way counts as inactive or inconclusive.
# Columns and labels:
# [1] = biological target: Bile acid receptor (Homo sapiens) (UniProt Q96RI1); test: qHTS assay to identify small molecule antagonists of the farnesoid-X-receptor (FXR) signaling pathway (AID 743217; active means well fitted inhibition curve with a large enough effect in the signal ratio in the repeat runs, not every such curve was filed as active; inconclusive means weak or mixed curves, or effect the other way; inactive means no such curve, though single readings can be large or run the other way; the % refers to the signal ratio); conditions: HEK293T FXR-UAS-bla, beta-lactamase ratio, CDCA-stimulated, 16 h; activity change, negative = inhibition: at 62.6 µM (top of the series) unless noted
# In short: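 Read-out: beta-lactamase FRET fluorescence (LiveBLAzer B/G substrate, 2 h, room temperature) in GeneBLAzer FXR-UAS-bla HEK 293T cells. Compounds were co-dosed with 50 uM chenodeoxycholic acid (final) and incubated 16 h at 37 °C.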
# [2] = qHTS assay for small molecule activators of the heat shock response signaling pathway (AID 743210; active means well fitted activation curve with a large enough effect in the signal ratio in the repeat runs, with a control signal flat, not every such curve was filed as active; inconclusive means weak or mixed curves; the % refers to the signal ratio; further: potency means the concentration at half of the fitted maximal effect;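 on activation: HeLa cells with beta-lactamase reporter driven by heat shock elements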); conditions: HeLa HSE-bla reporter, beta-lactamase ratio, 5 h; activation: at 62.6 µM (top of the series) unless noted
# In short: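 Beta-lactamase reporter read-out: FRET substrate fluorescence after 2.5 h at RT, following 5 h compound treatment at 37 C of HeLa cells carrying HSE-driven bla reporter; quantitative HTS format.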
# [3] = qHTS assay to identify small molecule agonists of the peroxisome proliferator-activated receptor delta (PPARd) signaling pathway - cell viability counter screen (AID 743211); conditions: PPARd-bla HEK293H viability, CellTiter-Glo luminescence, 17 h; activity change, negative = cytotoxicity: at 62.6 µM (top of the series); further: nearly all actives have a fitted effect of over 55% in size; further: potency means the concentration at half of the fitted maximal effect
# In short: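 PPARd-bla HEK293H cells (3000/well) were pre-incubated 5 h at 37 C, then exposed to compound for 17 h at 37 C. After 2 h with LiveBLAzer substrate, CellTiter-Glo was added to the same wells; luminescence read after 30 min at room temperature.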
# [4] = biological target: Peroxisome proliferator-activated receptor delta (Homo sapiens) (UniProt Q03181); test: qHTS assay to identify small molecule agonists of the peroxisome proliferator-activated receptor delta (PPARd) signaling pathway (AID 743212; calls by dose curve; further: potency means the concentration at half of the fitted maximal effect); conditions: HEK293H PPARd-UAS-bla, beta-lactamase FRET ratio, 17 h; activation: at 62.6 µM (top of the series) unless noted
# In short: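 Read-out: beta-lactamase FRET fluorescence after 2 h room-temperature incubation with LiveBLAzer B/G substrate. Cells were HEK293H carrying a UAS-bla reporter for PPARd, treated at 37 C with DMSO-dissolved compounds.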
# [5] = qHTS assay to identify small molecule antagonists of the peroxisome proliferator-activated receptor delta (PPARd) signaling pathway - cell viability counter screen (AID 743213); conditions: PPARd-bla HEK293H viability, CellTiter-Glo luminescence, 17 h; viability change, negative = cytotoxic: at 62 µM (top of the series) unless noted; further: nearly all actives have a fitted effect of over 50% in size; further: potency means the concentration at half of the fitted maximal effect
# In short: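 PPARd-bla HEK293H cells were treated with compounds plus agonist L165041 (300 nM final) for 17 h at 37 C. Viability was then read in the same wells by CellTiter-Glo luminescence after 30 min at room temperature.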
# [6] = biological target: Peroxisome proliferator-activated receptor delta (Homo sapiens) (UniProt Q03181); test: qHTS assay to identify small molecule antagonists of the peroxisome proliferator-activated receptor delta (PPARd) signaling pathway (AID 743215; active means well fitted inhibition curve with a large enough effect in the signal ratio in the repeat runs, not every such curve was filed as active; inconclusive means weak or mixed curves, or effect the other way; inactive means no such curve, though single readings can be large or run the other way; the % refers to the signal ratio;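 further: cells stimulated with agonist L165041 at 300 nM final during compound exposure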; further: potency means the concentration at half of the fitted maximal effect); conditions: HEK293H PPARd-UAS-bla, beta-lactamase FRET ratio, antagonist, 17 h; ratio activity, negative = inhibition: at 62 µM (top of the series) unless noted
# In short: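 HEK293H GeneBLAzer PPARd UAS-bla reporter cells; cpd + L165041 300 nM final, 17 h 37 C; LiveBLAzer B/G FRET substrate 2 h RT; fluorescence intensity read-out. Antagonist mode.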
# [7] = qHTS assay for small molecule activators of the heat shock response signaling pathway - cell viability counter screen (AID 743209); conditions: HSE-bla HeLa viability, CellTiter-Glo luminescence, 5 h; activity change, negative = cytotoxicity: at 62.6 µM (top of the series) unless noted; further: nearly all actives have a fitted effect of over 50% in size
# In short: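 HSE-bla HeLa; 1500 cells/well; overnight 37 C, 5% CO2; compound 5 h 37 C; LiveBLAzer B/G substrate 2.5 h RT; CellTiter-Glo 30 min RT; luminescence.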
# On the % scale 0 is the no-effect control and ±100 the full control effect; tags describe the fitted curve by direction and shape or compound fluorescence and quenching.
# UniProt Q96RI1, sequence (Q96RI1 whole entry, looked up): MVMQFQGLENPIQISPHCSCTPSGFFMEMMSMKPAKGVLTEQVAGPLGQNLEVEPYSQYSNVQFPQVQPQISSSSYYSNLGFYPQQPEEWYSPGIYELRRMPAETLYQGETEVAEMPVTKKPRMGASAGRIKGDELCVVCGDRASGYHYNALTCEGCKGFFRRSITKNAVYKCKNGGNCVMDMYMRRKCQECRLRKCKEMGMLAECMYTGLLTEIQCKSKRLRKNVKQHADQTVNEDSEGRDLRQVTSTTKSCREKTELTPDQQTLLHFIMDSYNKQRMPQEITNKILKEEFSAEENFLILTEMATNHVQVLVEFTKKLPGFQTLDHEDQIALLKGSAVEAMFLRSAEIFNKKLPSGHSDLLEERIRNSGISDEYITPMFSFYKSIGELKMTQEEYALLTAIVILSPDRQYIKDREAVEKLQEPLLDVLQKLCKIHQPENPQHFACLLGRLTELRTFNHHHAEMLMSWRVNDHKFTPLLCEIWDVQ
# UniProt Q03181, sequence (Q03181 whole entry, looked up): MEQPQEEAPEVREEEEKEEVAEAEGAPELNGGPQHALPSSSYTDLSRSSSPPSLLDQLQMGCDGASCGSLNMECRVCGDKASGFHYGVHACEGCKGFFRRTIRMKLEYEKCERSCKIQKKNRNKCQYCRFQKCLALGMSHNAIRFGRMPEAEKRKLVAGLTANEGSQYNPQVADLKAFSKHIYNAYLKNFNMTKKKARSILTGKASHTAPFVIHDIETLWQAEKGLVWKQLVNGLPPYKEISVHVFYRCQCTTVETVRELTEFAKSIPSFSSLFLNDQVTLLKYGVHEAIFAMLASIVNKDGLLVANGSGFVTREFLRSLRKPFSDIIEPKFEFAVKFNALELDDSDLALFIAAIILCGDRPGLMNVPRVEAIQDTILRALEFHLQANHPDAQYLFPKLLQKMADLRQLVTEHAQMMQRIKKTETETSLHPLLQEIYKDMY
compound,measurement,setting,value
CC(C)=CC1C(C(=O)OC(C#N)c2cccc(Oc3ccccc3)c2)C1(C)C (stereo not drawn),Potency,[1],inactive
c1ccc(OCC2CO2)cc1 (stereo not drawn),Potency,[2],"inconclusive: 55.1 µM [activator, single point]"
same,Potency,[3],"inconclusive: 55.1 µM [cytotoxic, single point]"
CCOC(=O)C1(c2ccccc2)CCN(CCc2ccc(N)cc2)CC1,Potency,[3],inactive
same,Potency,[4],inactive
same,Potency,[5],"inconclusive: 33.5 µM [cytotoxic, single point]"
O=C(O)C1C2CCC(O2)C1C(=O)O (stereo not drawn),"ratio activity, negative = inhibition",[6],inconclusive: 17% [at 80.4 µM]
CCCCCCCCOC(=O)c1ccccc1C(=O)OCCCCCCCC,Potency,[6],inactive
O=C(O)c1cc(Oc2ccc(C(F)(F)F)cc2Cl)ccc1[N+](=O)[O-],Potency,[3],"inconclusive: 5.31 µM [cytotoxic, single point]"
CC(C)[C@@H](C(=O)O[C@@H](C#N)c1cccc(Oc2ccccc2)c1)c1ccc(Cl)cc1,Potency,[2],inconclusive: 51.6 µM and inconclusive: 52.9 µM
same,Potency,[3],"inconclusive: 21.9 µM [cytotoxic, full curve, poor fit]"
same,Potency,[4],"inconclusive: 17.6 µM [rising, partial curve, poor fit]"
same,"ratio activity, negative = inhibition",[6],inconclusive: -4.28%
CC(=O)C(Cl)Cl,Potency,[4],inactive
COP(N)(=S)Oc1ccccc1C(=O)OC(C)C (stereo not drawn),Potency,[6],inactive
CN(C)c1ccc(C(=O)c2ccc(N(C)C)cc2)cc1,Potency,[2],inconclusive: 41.2 µM [activator]
same,Potency,[3],"inconclusive: 13.7 µM [cytotoxic, partial curve, poor fit] and inconclusive: 21.9 µM [cytotoxic, partial curve, poor fit]"
same,Potency,[4],"inconclusive: 24.5 µM [rising, partial curve]"
same,activation,[4],inconclusive: -3.89%
same,Potency,[5],"inconclusive: 0.61 µM [cytotoxic, partial curve, poor fit]"
same,Potency,[6],"inconclusive: 17.2 µM [rising, partial curve]"
CCN(CC)CCOC(=O)C(C)(c1ccccc1)c1ccccc1,Potency,[2],inactive
same,Potency,[6],inactive
COP(=O)(OC)OC=C(Cl)Cl,activation,[2],inconclusive: 8.46% [at 81.1 µM]
c1cc2c(c(N3CCNCC3)c1)OCCO2,Potency,[3],inactive
O=C(O)c1c(Cl)ccc2cc(Cl)cnc12,Potency,[6],inactive
same,Potency,[1],inactive
C[C@H](CN1CCOCC1)C(C(=O)N1CCCC1)(c1ccccc1)c1ccccc1,Potency,[7],inactive
same,"activity change, negative = inhibition",[1],inconclusive: -42.4% [at 81.1 µM]
c1ccc2c(c1)-c1cccc3cccc-2c13,Potency,[2],inactive
COP(=O)(O)OC,Potency,[2],inactive
same,Potency,[1],inactive
CCOP(=S)(OCC)SCSCC,Potency,[1],inactive
C=CCc1ccc(OC(=O)Cc2ccccc2)c(OC)c1,Potency,[7],inactive
same,"ratio activity, negative = inhibition",[6],inconclusive: 22.3%
CC(C)(C#N)C(C)(C)C#N,Potency,[5],"inconclusive: 62.4 µM [cytotoxic, partial curve, poor fit]"
CCOC(=O)c1ccccc1C(=O)OCC,"ratio activity, negative = inhibition",[6],inconclusive: 2.03%
CCN(N=O)C(N)=O,Potency,[5],"inconclusive: 5.39 µM [cytotoxic, single point] and inactive"
C[C@]12CCC(=O)C[C@@H]1CC[C@@H]1[C@@H]2CC[C@]2(C)[C@@H](O)CC[C@@H]12,"viability change, negative = cytotoxic",[5],inconclusive: 30.8% [cytotoxic]
O=C(Cl)OCc1ccccc1,Potency,[5],inactive
N#Cc1c[nH]cc1-c1cccc2c1OC(F)(F)O2,Potency,[3],"inconclusive: 21.9 µM [cytotoxic, partial curve]"
same,Potency,[5],"inconclusive: 3.89 µM [cytotoxic, partial curve]"
same,"ratio activity, negative = inhibition",[6],inconclusive: -22%
